Results on three compounds are retold here after ChEMBL document CHEMBL1961873, “Compounds: GSK PKIS; Assays: Nanosyn kinase panel” (2012).

The target of test [1] is T1, Serine/threonine-protein kinase Nek9 (Homo sapiens) (UniProt Q8TD19).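 Note: each value is a mean percent inhibition of NEK9.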
T1 sequence (whole entry): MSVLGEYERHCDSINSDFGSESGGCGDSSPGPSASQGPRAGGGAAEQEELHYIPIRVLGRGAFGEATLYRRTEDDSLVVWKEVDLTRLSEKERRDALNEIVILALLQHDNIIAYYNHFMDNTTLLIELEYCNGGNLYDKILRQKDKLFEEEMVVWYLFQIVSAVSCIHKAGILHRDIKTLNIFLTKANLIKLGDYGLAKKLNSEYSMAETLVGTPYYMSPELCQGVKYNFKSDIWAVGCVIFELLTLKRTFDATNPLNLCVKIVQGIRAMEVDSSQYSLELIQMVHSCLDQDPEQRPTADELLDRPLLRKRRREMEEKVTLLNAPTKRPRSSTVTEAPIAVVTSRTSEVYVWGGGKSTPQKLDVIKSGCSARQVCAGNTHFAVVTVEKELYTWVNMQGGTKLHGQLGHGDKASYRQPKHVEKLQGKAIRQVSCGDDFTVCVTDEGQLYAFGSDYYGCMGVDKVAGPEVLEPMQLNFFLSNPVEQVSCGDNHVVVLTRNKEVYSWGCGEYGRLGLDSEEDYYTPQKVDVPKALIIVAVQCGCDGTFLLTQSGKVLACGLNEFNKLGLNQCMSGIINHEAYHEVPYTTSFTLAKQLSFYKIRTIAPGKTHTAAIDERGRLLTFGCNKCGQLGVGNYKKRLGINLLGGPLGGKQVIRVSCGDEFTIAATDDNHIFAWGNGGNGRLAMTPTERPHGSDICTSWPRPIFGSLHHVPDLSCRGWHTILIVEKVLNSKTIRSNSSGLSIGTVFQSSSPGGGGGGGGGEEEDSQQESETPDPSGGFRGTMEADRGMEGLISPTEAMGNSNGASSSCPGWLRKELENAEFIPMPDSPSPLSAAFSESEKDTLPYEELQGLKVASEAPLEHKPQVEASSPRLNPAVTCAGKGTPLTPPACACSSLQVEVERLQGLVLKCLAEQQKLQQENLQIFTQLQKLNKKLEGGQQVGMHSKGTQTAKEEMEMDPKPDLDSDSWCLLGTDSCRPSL
The note with it: at 1 µM.

The target of test [2] is Serine/threonine-protein kinase PLK1 (Homo sapiens) (UniProt P53350). The note with it: at 0.1 µM.
For test [3] the target is unchanged. The note with it: at 1 µM.
Test [4] deals with T2, Dual specificity protein kinase TTK (Homo sapiens) (UniProt P33981).
T2 sequence (whole entry): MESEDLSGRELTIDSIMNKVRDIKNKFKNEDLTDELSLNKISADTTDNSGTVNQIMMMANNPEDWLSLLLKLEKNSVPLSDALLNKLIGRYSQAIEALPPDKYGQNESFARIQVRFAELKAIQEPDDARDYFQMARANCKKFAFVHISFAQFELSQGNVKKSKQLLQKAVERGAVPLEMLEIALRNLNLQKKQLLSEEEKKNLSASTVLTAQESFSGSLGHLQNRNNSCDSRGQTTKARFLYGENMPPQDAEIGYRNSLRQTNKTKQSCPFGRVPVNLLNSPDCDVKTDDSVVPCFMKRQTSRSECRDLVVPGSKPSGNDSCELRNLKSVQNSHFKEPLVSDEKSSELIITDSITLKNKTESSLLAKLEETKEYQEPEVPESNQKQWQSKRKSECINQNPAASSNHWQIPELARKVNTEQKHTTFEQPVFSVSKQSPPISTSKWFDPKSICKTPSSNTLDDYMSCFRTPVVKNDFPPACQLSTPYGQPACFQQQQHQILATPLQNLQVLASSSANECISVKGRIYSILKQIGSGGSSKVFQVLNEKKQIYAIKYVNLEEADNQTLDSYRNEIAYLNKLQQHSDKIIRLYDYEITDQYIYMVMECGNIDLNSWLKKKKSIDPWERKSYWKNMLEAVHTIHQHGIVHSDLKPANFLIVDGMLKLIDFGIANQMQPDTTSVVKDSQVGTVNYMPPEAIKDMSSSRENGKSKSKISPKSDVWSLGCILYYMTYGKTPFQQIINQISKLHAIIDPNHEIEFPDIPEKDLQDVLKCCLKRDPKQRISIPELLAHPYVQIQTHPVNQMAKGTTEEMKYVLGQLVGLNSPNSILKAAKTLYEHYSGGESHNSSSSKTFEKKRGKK
The conditions noted are these: at 0.1 µM.

The test system of test [5] is T3, Receptor-type tyrosine-protein kinase FLT3 (Homo sapiens), P36888 [D835Y].
T3 sequence (whole entry): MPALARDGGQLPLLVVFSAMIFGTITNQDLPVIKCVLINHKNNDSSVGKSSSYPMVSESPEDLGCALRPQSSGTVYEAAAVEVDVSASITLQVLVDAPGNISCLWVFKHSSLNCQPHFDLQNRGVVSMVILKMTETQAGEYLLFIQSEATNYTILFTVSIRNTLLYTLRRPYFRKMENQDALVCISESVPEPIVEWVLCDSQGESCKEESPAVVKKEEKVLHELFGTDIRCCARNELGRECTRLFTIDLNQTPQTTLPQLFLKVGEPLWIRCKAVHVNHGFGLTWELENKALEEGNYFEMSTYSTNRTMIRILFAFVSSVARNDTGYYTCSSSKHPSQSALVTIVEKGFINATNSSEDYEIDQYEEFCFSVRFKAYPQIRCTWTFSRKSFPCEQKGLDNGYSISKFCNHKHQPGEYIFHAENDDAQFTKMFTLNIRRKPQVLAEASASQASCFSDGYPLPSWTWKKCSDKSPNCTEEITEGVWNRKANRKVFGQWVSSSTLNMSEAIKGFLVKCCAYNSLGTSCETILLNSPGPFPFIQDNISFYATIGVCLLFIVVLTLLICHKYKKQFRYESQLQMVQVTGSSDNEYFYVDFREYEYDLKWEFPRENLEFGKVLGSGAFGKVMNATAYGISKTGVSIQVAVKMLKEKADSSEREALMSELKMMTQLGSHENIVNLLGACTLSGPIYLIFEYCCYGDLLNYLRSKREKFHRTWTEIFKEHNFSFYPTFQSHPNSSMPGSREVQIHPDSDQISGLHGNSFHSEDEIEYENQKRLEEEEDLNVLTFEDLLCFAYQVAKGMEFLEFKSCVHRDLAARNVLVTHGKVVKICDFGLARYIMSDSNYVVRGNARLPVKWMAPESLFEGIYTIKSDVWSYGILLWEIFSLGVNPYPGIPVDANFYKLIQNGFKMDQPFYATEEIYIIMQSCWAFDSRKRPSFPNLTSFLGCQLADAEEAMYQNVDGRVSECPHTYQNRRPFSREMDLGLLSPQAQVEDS
The conditions noted are these: at 1 µM.

For test [6], the target named is Vascular endothelial growth factor receptor 3 (Homo sapiens) (UniProt P35916). The conditions noted are these: at 0.1 µM.
For test [7], the target named is Macrophage colony-stimulating factor 1 receptor (Homo sapiens) (UniProt P07333). The note with it: at 0.1 µM.
The target is the same in test [8]. The note with it: at 1 µM.
Test [9] deals with Tyrosine-protein kinase Fyn (Homo sapiens) (UniProt P06241). The conditions noted are these: at 0.1 µM.
The target is the same in test [10]. The note with it: at 1 µM.
In test [11] the target is Tyrosine-protein kinase HCK (Homo sapiens) (UniProt P08631). The conditions noted are these: at 0.1 µM.
The target is the same in test [12]. The note with it: at 1 µM.
Test [13] concerns the target Insulin-like growth factor 1 receptor (Homo sapiens) (UniProt P08069). The note with it: at 0.1 µM.
The target is the same in test [14]. The note with it: at 1 µM.
Test [15] has as its target Insulin receptor (Homo sapiens) (UniProt P06213). The note with it: at 0.1 µM.
Test [16] has the same target. The note with it: at 1 µM.
For test [17], the target named is Insulin receptor-related protein (Homo sapiens) (UniProt P14616). The conditions noted are these: at 0.1 µM.
For test [18] the target is unchanged. The conditions noted are these: at 1 µM.
For test [19], the target named is T4, Tyrosine-protein kinase ITK/TSK (Homo sapiens) (UniProt Q08881).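 Note: mean percent inhibition of ITK from the GSK PKIS screen.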
T4 sequence (whole entry): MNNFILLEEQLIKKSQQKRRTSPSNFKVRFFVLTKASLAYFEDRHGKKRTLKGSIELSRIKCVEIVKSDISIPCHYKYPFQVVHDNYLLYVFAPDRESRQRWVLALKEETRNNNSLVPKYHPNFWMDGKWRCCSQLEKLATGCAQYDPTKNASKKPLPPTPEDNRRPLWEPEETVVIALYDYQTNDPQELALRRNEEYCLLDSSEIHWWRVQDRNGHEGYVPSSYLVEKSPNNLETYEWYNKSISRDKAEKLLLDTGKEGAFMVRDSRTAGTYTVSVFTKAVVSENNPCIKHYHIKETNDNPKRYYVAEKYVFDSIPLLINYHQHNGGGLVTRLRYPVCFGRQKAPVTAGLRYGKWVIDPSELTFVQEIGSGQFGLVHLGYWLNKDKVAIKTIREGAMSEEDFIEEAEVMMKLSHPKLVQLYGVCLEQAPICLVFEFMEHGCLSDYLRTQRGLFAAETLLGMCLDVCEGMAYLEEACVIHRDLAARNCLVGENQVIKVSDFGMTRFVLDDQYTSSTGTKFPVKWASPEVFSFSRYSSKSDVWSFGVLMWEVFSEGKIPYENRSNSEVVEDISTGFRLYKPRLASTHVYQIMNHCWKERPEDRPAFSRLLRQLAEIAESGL
The note with it: at 0.1 µM.

The target in test [20] is Vascular endothelial growth factor receptor 3 (Homo sapiens) (UniProt P35916). The note with it: at 1 µM.

For some assays here: Most of the strong results are listed elsewhere, so they are rarer here than in the full data. The list shows a part of the results, in another mix than the full data.

Sequence of UniProt P06241 (P06241 whole entry, looked up): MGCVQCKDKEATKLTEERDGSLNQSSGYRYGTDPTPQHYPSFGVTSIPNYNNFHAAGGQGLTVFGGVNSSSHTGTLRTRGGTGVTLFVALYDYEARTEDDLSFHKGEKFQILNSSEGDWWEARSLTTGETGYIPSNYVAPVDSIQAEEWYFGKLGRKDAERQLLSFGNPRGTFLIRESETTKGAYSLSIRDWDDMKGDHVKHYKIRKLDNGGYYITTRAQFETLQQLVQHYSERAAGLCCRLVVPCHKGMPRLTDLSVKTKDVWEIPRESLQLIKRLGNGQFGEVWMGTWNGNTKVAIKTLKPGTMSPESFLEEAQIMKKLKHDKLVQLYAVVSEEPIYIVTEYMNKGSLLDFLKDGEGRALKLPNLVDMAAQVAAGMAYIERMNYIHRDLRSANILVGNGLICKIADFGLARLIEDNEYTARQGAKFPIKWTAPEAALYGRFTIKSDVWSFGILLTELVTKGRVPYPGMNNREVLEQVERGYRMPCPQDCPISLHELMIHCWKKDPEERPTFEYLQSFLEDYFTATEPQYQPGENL
Sequence of UniProt P14616 (P14616 whole entry): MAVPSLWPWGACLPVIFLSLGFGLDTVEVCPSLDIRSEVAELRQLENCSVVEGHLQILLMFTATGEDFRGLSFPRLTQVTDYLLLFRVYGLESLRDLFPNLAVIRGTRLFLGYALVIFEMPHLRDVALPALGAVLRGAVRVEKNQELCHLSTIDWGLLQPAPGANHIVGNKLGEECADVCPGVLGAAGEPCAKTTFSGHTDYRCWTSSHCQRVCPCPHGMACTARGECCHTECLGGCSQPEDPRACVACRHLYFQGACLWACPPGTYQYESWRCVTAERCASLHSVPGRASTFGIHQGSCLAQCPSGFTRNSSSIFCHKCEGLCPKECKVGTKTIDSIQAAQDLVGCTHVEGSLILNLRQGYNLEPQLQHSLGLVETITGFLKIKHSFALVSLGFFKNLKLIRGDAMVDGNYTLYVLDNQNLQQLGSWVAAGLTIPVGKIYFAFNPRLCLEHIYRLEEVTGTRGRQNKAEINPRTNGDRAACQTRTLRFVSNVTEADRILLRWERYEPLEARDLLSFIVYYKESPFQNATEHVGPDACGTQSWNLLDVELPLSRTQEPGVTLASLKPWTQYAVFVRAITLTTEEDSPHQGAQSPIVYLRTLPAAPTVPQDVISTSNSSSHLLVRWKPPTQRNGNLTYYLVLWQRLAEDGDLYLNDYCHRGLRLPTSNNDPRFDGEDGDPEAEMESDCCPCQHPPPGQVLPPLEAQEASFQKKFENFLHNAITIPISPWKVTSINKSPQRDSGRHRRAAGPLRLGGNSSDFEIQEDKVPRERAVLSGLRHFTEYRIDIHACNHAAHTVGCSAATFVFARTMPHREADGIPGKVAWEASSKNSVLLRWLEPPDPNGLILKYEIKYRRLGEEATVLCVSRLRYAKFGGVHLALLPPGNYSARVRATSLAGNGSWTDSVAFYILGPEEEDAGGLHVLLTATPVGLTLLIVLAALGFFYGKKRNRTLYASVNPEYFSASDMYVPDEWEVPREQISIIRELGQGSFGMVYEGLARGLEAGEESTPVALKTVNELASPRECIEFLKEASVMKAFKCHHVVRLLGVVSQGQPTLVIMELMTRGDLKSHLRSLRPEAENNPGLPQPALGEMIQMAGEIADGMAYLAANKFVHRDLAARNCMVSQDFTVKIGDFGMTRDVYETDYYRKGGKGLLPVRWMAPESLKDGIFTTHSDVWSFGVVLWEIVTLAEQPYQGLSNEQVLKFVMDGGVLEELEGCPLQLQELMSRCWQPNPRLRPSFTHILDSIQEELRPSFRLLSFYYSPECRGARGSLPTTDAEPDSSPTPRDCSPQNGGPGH
Sequence of UniProt P53350 (P53350 whole entry): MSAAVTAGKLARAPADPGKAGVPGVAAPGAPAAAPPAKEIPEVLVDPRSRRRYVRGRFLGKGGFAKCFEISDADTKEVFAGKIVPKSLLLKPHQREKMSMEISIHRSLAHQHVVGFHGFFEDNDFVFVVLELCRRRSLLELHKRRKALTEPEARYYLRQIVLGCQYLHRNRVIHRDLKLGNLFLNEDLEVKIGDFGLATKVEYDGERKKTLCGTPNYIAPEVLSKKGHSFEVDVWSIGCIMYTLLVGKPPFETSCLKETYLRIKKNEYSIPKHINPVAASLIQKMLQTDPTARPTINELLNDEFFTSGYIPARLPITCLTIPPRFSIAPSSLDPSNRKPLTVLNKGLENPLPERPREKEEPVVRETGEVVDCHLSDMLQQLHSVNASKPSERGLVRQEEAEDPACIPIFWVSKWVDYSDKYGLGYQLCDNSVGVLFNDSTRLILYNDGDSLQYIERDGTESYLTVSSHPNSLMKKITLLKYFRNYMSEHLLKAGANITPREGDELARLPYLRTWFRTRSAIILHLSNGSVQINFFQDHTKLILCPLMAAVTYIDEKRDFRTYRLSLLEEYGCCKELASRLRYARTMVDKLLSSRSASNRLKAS
Sequence of UniProt P35916 (P35916 whole entry): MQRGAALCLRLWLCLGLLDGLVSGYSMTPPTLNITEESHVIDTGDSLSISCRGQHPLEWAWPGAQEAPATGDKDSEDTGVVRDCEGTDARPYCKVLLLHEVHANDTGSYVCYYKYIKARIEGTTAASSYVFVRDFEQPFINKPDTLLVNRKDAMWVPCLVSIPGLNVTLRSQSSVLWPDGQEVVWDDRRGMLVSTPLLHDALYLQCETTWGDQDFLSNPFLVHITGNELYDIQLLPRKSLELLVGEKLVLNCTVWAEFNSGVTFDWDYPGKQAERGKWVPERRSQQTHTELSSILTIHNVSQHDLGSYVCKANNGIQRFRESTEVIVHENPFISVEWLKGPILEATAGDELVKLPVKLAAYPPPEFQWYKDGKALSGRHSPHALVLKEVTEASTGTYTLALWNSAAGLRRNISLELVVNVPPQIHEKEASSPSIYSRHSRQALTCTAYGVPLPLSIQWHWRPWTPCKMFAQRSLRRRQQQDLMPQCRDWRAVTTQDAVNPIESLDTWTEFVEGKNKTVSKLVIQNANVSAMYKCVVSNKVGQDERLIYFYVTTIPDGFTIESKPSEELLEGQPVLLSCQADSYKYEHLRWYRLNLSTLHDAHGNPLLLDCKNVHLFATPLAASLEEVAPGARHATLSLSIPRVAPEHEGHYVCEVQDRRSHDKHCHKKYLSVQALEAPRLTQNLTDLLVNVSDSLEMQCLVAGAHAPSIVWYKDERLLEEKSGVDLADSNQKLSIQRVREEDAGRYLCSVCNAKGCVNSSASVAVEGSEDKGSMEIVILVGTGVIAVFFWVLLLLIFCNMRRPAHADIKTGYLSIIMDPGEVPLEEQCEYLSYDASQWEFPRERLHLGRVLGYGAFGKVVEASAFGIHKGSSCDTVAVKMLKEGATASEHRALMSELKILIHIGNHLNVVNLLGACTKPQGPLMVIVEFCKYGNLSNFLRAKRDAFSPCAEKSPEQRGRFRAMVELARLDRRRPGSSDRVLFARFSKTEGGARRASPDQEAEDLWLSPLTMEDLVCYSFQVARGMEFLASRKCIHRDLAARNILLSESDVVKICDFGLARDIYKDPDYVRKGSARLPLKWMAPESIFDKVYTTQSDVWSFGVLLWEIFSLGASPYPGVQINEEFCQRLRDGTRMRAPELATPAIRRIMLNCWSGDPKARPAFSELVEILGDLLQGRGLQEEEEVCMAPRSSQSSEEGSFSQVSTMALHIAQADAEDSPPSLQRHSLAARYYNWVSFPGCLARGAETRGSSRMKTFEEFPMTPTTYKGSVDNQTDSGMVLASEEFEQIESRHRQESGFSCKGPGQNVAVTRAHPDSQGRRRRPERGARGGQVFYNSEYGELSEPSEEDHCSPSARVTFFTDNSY
Sequence of UniProt P07333 (P07333 whole entry): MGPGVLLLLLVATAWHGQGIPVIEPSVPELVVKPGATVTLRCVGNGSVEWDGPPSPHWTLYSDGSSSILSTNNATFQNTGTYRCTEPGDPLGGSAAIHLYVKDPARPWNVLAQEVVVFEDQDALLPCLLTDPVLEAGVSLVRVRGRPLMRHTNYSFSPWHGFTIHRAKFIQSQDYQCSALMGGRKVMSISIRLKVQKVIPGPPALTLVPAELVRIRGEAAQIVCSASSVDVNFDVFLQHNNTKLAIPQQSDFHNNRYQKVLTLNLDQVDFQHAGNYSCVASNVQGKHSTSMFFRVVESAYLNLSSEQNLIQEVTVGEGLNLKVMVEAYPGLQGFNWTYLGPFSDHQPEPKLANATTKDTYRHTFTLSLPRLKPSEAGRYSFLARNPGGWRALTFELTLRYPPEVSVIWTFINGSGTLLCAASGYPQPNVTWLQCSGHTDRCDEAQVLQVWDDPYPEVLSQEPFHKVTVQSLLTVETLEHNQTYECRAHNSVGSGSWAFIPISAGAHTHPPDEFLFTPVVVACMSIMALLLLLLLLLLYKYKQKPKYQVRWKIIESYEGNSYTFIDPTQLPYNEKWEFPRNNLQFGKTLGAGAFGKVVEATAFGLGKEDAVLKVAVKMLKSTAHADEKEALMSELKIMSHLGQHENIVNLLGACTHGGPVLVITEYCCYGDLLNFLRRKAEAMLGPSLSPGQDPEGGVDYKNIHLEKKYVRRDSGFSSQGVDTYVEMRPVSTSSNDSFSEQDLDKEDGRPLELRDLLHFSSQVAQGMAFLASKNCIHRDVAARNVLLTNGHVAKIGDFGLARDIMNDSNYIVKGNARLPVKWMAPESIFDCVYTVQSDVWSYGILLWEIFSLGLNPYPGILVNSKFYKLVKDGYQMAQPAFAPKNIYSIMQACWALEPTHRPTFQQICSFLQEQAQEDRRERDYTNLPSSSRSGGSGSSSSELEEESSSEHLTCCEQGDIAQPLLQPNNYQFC

Turning to `Fc1ccc(Oc2nccc(-c3c(-c4ccc(F)cc4)ncn3C3CCNCC3)n2)cc1`, the inhibition was 4.98% in [1]; 4.29% in [2]; 7.22% in test [3]; 6.82% in test [4]; 1.57% in test [5]; -4.49% in [6]. For the same compound, the inhibition in [7] is 4.05%; in test [8] it was 8.52%; in test [9] it was -1.7%; in [10], -4.65%; in test [11] it was 5.89%; in test [12], 8.22%. The inhibition in test [13] is -7.87%; in test [14], -3.24%; in [15] it was 5.95%; in test [16] it was 3.26%; in [17], 2.47%; in test [18], 3.33%. For the same compound, the inhibition in test [19] is -1.5%.

Take `COc1ccccc1C1=C(Nc2ccccc2)C(=O)NC1=O`: the inhibition was 9.03% in test [1]; 3.34% in test [2]; 1.42% in [3]; 4.06% in [4]; 3.02% in test [5]; 1.54% in [6]. Further, the inhibition in [20] was 4.56%; in test [7] it was 0.47%; in test [8], 4.75%; in test [9], 2.9%; in test [10], 13.1%; in [11], 5.27%. Besides, the inhibition in test [12] amounted to 16.2%; in [13] it was 3.72%; in test [14], 4.06%; in test [15], 3.01%; in test [16], 1.91%; in [17], 3.89%. Further, the values for the inhibition in test [18] and in test [19] were 3.19% and 1.05%, respectively.

Take `O=C1NC(=O)C(c2ccccc2Cl)=C1Nc1cc(Cl)c(O)c(Cl)c1`: the inhibition in test [1] is 7.1%; in [2], 0.91%; in test [3] it was 1.83%; in [4] it was 13.6%; in test [5] it was 2.79%; in test [6], 3.13%. For the same compound, the inhibition in [20] was 1.9%; in test [7], 4.22%; in test [8], 5.16%; in test [9], -0.84%; in test [10] it was 0.23%; in test [11], 1.89%. The inhibition is 8.37% in test [12]; 1.91% in [13]; 1.79% in [14]; 0.79% in [15]; -0.85% in [16]; 2.16% in [17]. Also, the inhibition came to 2.59% in [18] and 0.77% in test [19].

For orientation: inhibition means the relative decrease from the control value, in per cent.
